We go through 57 compounds from PubChem BioAssay AID463173 (ICCB-Longwood Screening Facility, Harvard Medical School, 2010).

The campaign covered roughly 52,000 compounds. About 4,300 (8.3%) were called active. Rule as the data show it: active = survival mostly below about 52% (no sharp cut-off); inactive = mostly above about 56%. This is one part of the list.

This test deals with DeltatarO mutant. Briefly: S. aureus survival, RN4220 and DeltatarO strains – OD600, teichoic acid synthesis inhibitors, primary screen (AID 463173). Particulars: S. aureus RN4220 wild type/DeltatarO growth, OD600, 18 h, hits give low values, screened at 18.75 µg/mL (by protocol).
For `Cc1nc2c(cnn2-c2ccccc2Cl)c(=O)n1-c1ccc(C(C)C)cc1`, the survival is inactive: 111%.
In the case of `COc1cccc(-c2nc(SCC(=O)Nc3ccc4c(c3)OCO4)c(-c3ccccc3)[nH]2)c1`, the survival was active: 31%.
For `Cc1ccc2cc(CN(CCN(C)C)C(=O)NC3CCCCC3)c(=O)[nH]c2c1` the value was inactive: 101%; for `CCOC(=O)N1CC=C2C(C#N)=C(N)C(C#N)(C#N)C(CC)C2C1` (configuration not stated), inactive: 80%; for `Cc1ccc(OC(=O)c2cc(-c3ccccc3)nc3ccc(C)cc23)cc1`, active: 49%.
Take `COCCNC(=O)c1ccc2c(c1)N(Cc1cccc(Cl)c1)C(=O)c1ccccc1S2(=O)=O`: the survival is inactive: 91%.
The result for `COc1ccccc1Oc1nc2c(c(=O)n(C)c(=O)n2C)n1Cc1cccc(Br)c1` reads active: 40%; that for `O=S(=O)(NCc1ccc2c(c1)OCO2)c1ccc(S(=O)(=O)NC2CCCCC2)cc1`, inactive: 70%.
For `CC(=O)Nc1ccc(S(=O)(=O)Nc2cccc(-c3ccc(N4CCC(C)CC4)nn3)c2)cc1`, the survival is inactive: 115%.
For `COc1ccc2c(Sc3ccccc3)c(C(=O)NCc3cccc(OC)c3OC)[nH]c2c1` the value was inactive: 78%; for `CCOc1ccc(CCNC(=O)CCCc2nnc3n(CC(C)C)c(=O)c4sccc4n23)cc1`, inactive: 78%.
For the compound `CCOC(=O)c1cc(S(=O)(=O)Nc2ccc(OC)c(Cl)c2)[nH]n1`, the survival was active: -4%.
The result for `CCOC(=O)C1(C)C=C(Nc2ccc(C(N)=O)cc2)C(=O)N1c1ccccc1` (configuration not stated) reads inactive: 68%; that for `CN1C(=O)Cc2cc(S(=O)(=O)CCC(=O)Nc3cccc(C(F)(F)F)c3)ccc21`, inactive: 89%; that for `CC(C)OCCCn1c(SCc2cccc(Br)c2)nc2c(sc3ccccc32)c1=O`, inactive: 88%.
Consider `Cc1cc(-c2ccc(N3C(=O)CCC3=O)c(C)c2)ccc1N1C(=O)CCC1=O`, for which the survival was inactive: 71%.
With `CCOCCCNC(=O)C(c1ccc(OC)cc1)N(Cc1cccs1)C(=O)c1ccc(NC(C)=O)cc1` (configuration not stated), the survival is inactive: 53%.
For `Oc1cccc(C(Nc2ccccn2)c2ccc3cccnc3c2O)c1Cl` (configuration not stated) the value was active: 26%; for `CCn1c(CN2CCC(C)CC2)nc2cc(NC(=O)c3ccccc3[N+](=O)[O-])ccc21`, inactive: 86%; for `Cc1ccc(C)c(Cn2c(=O)c3c(nc4n3CCN4c3ccc(F)cc3)n(C)c2=O)c1`, inactive: 88%.
With `CCOc1ccc(-n2c(Cc3ccccc3)nnc2SCc2nc(-c3ccccc3C)no2)cc1`, the survival is inactive: 56%.
The result for `CCOC(=O)c1c(C)[nH]c(CCC(=O)NCCCN2CCN(c3cccc(Cl)c3)CC2)c1C` reads inactive: 75%; that for `CCc1ccc(OC(=O)CSc2nnc(-c3ccc4c(c3)OCO4)o2)cc1`, inactive: 79%.
In the case of `Cc1ccc(NC(=O)C(=O)NCC(c2cccnc2)N2CCOCC2)cc1C` (configuration not stated), the survival was inactive: 92%.
As for `CCS(=O)(=O)N1CCc2cc(C(=O)N3CCN(c4cccc(C(F)(F)F)c4)CC3)ccc21`, the survival was inactive: 52%.
On to `CC(C)N(C(=O)c1cc2sccc2n1Cc1ccc(F)cc1)C(C)C`, for which the survival is inactive: 104%.
Take `NC(=O)C1CCN(CC(=O)Nc2ccccc2)CC1`: the survival is inactive: 96%.
On to `CCCCC(CC)C(=O)Nc1nnc(C(C)C)s1` (configuration not stated), for which the survival was inactive: 91%.
For `COc1ccc2oc(=O)cc(CN3CCN(C(=O)c4ccccc4F)CC3)c2c1`, the survival was active: 36%.
The result for `CCOc1ccc2nc(Cl)c(CN(Cc3ccco3)C(=O)C3CC3)cc2c1` reads inactive: 106%; that for `COc1cccc(-c2cn3c(n2)sc2cc(C(=O)NCc4cccs4)ccc23)c1`, inactive: 57%; that for `COc1ccc(CNC(=O)Cn2ccc3cc(S(=O)(=O)N4CCCCCC4)ccc32)cc1OC`, inactive: 108%.
Consider `CCCN(CCC)CCCNC(=O)C1CCC(CNS(=O)(=O)c2ccc(NC(C)=O)cc2)CC1` (configuration not stated), for which the survival is inactive: 84%.
Turning to `COc1cccc(CNC(=O)CCc2nnc3n(C)c(=O)c4sccc4n23)c1`, the survival was inactive: 63%.
Regarding `CC(=O)Nc1ccc(NC(=O)CC2Sc3ccccc3NC2=O)cc1` (configuration not stated), the survival is inactive: 177%.
`Cc1ccc(Cl)cc1N1CCN(C(=O)c2cc(S(=O)(=O)N3CCC(C)CC3)cn2C)CC1`: the survival is inactive: 89%.
As for `CCOc1ccc(CNC(=O)C2CCN(S(=O)(=O)c3c(C)noc3/C=C/c3ccc(C)cc3)CC2)cc1OC`, the survival is inactive: 81%.
Take `CCOc1ccc(CNS(=O)(=O)c2ccc3[nH]c4c(c3c2)CCCC4)cc1OC`: the survival is inactive: 81%.
Consider `Cc1c(CNCc2ccc(Cl)cc2)c(C(=O)O)c(C)n1Cc1ccc(F)cc1`, for which the survival is inactive: 77%.
Regarding `CN(C)c1nc(C#N)nc(N2CCOCC2)n1`, the survival is inactive: 72%.
The result for `COc1ccc(C(CNC(=O)COc2ccc(C)c(C)c2)N2CCCCC2)cc1` (configuration not stated) reads inactive: 89%; that for `CN1CCN(S(=O)(=O)c2ccc(NC(=O)COc3ccccc3Cl)cc2)CC1`, inactive: 106%.
For `Cc1ccccc1CSc1cn(CCNC(=O)c2cccs2)c2ccccc12` the value was inactive: 65%; for `CCC(O)c1nc2ccccc2n1Cc1cccc(Cl)c1` (configuration not stated), inactive: 83%; for `CCOC(=O)Cc1ccc(NC(=O)n2ncc3c(C)cccc32)cc1`, inactive: 76%.
With `CCOC(=O)c1c(C)oc2nc(C)nc(Nc3cccc(OC)c3)c12`, the survival was inactive: 78%.
For the compound `CCN1C(=O)N(CC)C2NC(=S)NNC21` (configuration not stated), the survival is inactive: 91%.
For `CCOc1ccc(CC(=O)Nc2c(C(=O)c3ccc(F)cc3)oc3ccccc23)cc1OCC`, the survival was active: 42%.
Regarding `Cc1ccc(-c2nc3c(c(SCC(=O)N4CCCCC4)n2)Cc2cc(C)ccc2O3)cc1`, the survival is inactive: 69%.
For `CCn1c(CNC(=O)c2ccc(OC)cc2)nnc1SCC(=O)Nc1ccc(OC)cc1`, the survival is inactive: 132%.
`O=C(CN1C(=O)c2ccccc2C1=O)OC(C(=O)NC1CCCC1)c1ccncc1` (configuration not stated): the survival was inactive: 104%.
The result for `Cc1ccccc1CNC(=O)C(C)n1nc(C)n2c(cc3occc32)c1=O` (configuration not stated) reads inactive: 68%.
As for `COc1ccc(CC(=O)Nc2nc3c(s2)CC(C(C)(C)C)CC3)cc1` (configuration not stated), the survival was active: 29%.
On to `Cc1ccc(NC(=O)CN2C(=O)CCSc3ccc(S(=O)(=O)N4CCCC4)cc32)cc1`, for which the survival was inactive: 86%.
Regarding `COc1ccc(NC(=O)C2=CC(c3cccs3)=NS(=O)(=O)N2C)cc1`, the survival was inactive: 94%.
Take `O=C1CC(c2nc3ccccc3n2CCCCOc2ccccc2)CN1c1ccccc1Cl` (configuration not stated): the survival was inactive: 58%.
On to `CC1CCCCN1Cc1c(O)ccc2c(=O)c(-c3cccc(Cl)c3)c(C(F)(F)F)oc12` (configuration not stated), for which the survival was inactive: 59%.
